# The campaign covered roughly 310,000 compounds. About 2,200 (0.71%) showed an effect of 50% or more. The effect is printed as a negative number. This is one part of the list.
# Target: human ether-à-go-go-related gene (hERG) potassium channel (human, UniProt Q12809)
# Test: primary screen, population patch clamp on CHO cells stably expressing hERG
# Sequence of human ether-à-go-go-related gene (hERG) potassium channel (Q12809 whole entry, looked up): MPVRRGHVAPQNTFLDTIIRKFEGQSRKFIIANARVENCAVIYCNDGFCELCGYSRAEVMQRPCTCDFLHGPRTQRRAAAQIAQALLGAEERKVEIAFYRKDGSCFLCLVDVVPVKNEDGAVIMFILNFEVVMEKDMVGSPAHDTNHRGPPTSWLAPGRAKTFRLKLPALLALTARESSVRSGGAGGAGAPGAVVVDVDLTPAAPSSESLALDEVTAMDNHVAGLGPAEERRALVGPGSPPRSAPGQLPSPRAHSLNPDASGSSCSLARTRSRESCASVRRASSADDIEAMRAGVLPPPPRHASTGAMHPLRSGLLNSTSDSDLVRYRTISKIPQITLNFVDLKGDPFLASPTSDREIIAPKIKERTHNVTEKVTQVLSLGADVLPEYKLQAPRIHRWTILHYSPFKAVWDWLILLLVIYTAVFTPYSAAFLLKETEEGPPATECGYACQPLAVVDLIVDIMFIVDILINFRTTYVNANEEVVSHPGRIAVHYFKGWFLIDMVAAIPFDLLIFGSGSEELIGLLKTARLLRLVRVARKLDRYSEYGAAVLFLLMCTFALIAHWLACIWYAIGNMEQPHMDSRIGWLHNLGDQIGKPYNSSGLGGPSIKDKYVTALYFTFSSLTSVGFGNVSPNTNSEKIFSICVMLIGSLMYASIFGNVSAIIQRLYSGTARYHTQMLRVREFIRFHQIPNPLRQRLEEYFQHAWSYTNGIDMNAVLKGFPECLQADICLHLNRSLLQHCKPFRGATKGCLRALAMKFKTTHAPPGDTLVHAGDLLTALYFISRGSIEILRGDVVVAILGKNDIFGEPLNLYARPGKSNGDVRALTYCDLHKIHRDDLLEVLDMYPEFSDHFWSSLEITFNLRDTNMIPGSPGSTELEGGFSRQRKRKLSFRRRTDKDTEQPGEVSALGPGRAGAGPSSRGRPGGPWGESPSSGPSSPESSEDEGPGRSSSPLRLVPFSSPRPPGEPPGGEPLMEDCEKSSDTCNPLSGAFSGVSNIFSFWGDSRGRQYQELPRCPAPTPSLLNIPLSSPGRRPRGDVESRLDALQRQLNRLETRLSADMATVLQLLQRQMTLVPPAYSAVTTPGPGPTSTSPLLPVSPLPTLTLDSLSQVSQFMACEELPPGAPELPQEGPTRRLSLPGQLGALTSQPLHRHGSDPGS
row,Compound,"hERG current change (%, negative = inhibition) at 1uM [%]"
1,CCOC(=O)c1cc2c(ccc3nc(C)c(C)c32)[nH]c1C,1.76
2,COc1ccccc1CNC(=S)NCc1ccc(F)cc1,13.4
3,Cn1c(=O)oc2cc(S(=O)(=O)NCC3CCCO3)ccc21 (centres unmarked),6.74
4,CS(=O)(=O)NCCNc1cc(Cl)ccc1[N+](=O)[O-],11.4
5,Cc1ccc([N+](=O)[O-])cc1S(=O)(=O)Nc1ccccn1,17.1
6,O=C(NCc1ccco1)C1CN(S(=O)(=O)c2ccccc2)CCN1S(=O)(=O)c1ccccc1 (centres unmarked),-9.38
7,COc1ccc(/C=C2/C(=O)OCc3cc(OC)c(OC)cc32)c(OC)c1,8.09
8,Cc1cc(C(=O)Nc2nnc(C(F)(F)F)s2)no1,9.42
9,COc1ccc(C(=O)c2cc3cccc(OC)c3o2)cc1,10.5
10,COc1ccc(C(=O)N/N=C/C(Br)=C/c2ccccc2)cc1,9.03
11,CN(C)/C=N/c1ncn(-c2ncc(C(F)(F)F)cc2Cl)n1,9.9
12,Cc1ccc(-n2c(N)c(C#N)c(-c3ccc(Cl)cc3)c(C#N)c2=O)cc1,10.8
13,COc1cc(C(=O)OC2CC3CCC2(C)C3(C)C)ccc1OC(C)=O (centres unmarked),14.3
14,COc1ccc(N2CC(O)=C(c3nc(C)cs3)C2=N)cc1,11.3
15,COc1ccc2nc(N3C(=O)CC(Cc4cc(C)cc(C)c4)C3=O)sc2c1 (centres unmarked),17.6
16,Cc1nn(CC(=O)c2ccc(Cl)cc2Cl)c(C)[n+]1N.[Br-],9.78
17,Cn1c(=O)c2c(nc(N/N=C/c3cccnc3)n2Cc2ccccc2)n(C)c1=O,-11.3
18,CCOC(=O)c1ccc2c(c1)nc(SC(C)C(=O)NCC1CCCO1)n2CC (centres unmarked),-7.17
19,C[C@@H]1O[C@@H](O[C@@H]2C=C3CC[C@@H]4C(CC[C@]5(C)[C@@H](c6ccc(=O)oc6)CC[C@]45O)[C@@]3(C)CC2)[C@H](O)[C@H](O)[C@H]1O (some centres unmarked),10.8
20,Cc1ccc(/C=N/N2CCN(Cc3ccccc3)CC2)o1.Cl,12.4
21,O=c1onc(-c2ccccc2)n1-c1cc(Cl)cc(Cl)c1,0.961
22,O=C(NCCOc1cccnc1)c1ccc(OC2CCN(Cc3ccccn3)CC2)cc1,8.2

row,Compound,"hERG current change (%, negative = inhibition) at 1uM [%]"
1,Cc1ccc(C(=O)C(OC(=O)CNC(=O)c2ccc(Cl)cc2)c2ccccc2)cc1 (centres unmarked),-0.769
2,COc1ccc(/C=N/NC(=O)CC#N)cc1Oc1nc(Cl)ncc1F,12.5
3,CCCOc1ccc(Cc2c(O)nc(N)[nH]c2=O)cc1C,11.6
4,O=C(N/N=C/c1c(O)n(CCc2ccc(F)cc2)c(=O)[nH]c1=O)c1ccncc1,6.08
5,CC(=O)NC(CC(=O)Nc1nc(-c2ccc(N(C)S(C)(=O)=O)cc2)cs1)c1ccccc1 (centres unmarked),14.5
6,CC1=CN2C(=N)/C(=C/c3ccc([N+](=O)[O-])o3)C(=O)N=C2S1,15
7,CCOC(=O)CN1C(=O)N[C@@H](c2ccccc2)[C@H](C(C)=O)[C@H]1C,11.7
8,CN(CC(=O)Nc1ccc(Cl)c(S(=O)(=O)N2CCOCC2)c1)C(=O)c1cccs1,0.724
9,CCC(C)[C@H](NC(=O)NCc1ccc(F)cc1)C(=O)O (some centres unmarked),8.27
10,O=C1CC(N2CCN(C/C=C/c3ccccc3)CC2)C(=O)N1CCc1ccccc1 (centres unmarked),-4.01
11,C/C(Cn1nnc([N+](=O)[O-])n1)=N\NC(=O)c1ccccc1O,12.7
12,Cc1cc(NC(=O)COC(=O)c2cccc(O)c2)no1,7.72
13,CCOC(=O)C(NCc1ccc(OC)cc1)(NC(C)=O)C(F)(F)F (centres unmarked),-2.26
14,Cc1c(Cl)c(=O)oc2cc(OC(C)C)ccc12,4.27
15,Cc1cc(=O)oc(C)c1C(=O)N[C@@H](Cc1ccccc1)C(=O)O,13.1
16,CCOC(=O)N1CCN(C(=O)c2cc(COc3ccc4ncccc4c3)on2)CC1,5.66
17,Cc1ccc(OCC(=O)Nc2ccc(O)c(C(=O)O)c2)cc1C,11.3
18,Cc1ccc(C(=O)NNC(=O)CNc2cccc(Cl)c2)cc1,11.7
19,CCOc1ccccc1NC(=S)NC(=O)C1CCCCC1,13.1
20,CCOc1cc(C2Nc3ccccc3C(=O)N2c2ccccc2)ccc1O (centres unmarked),15
21,Cc1ccc(CSc2sc(C(=O)c3ccccc3)c(N)c2C#N)cc1,-1.05
22,CCOC(=O)c1c(C)[nH]c(C(=O)OCC(=O)N2CCCC2=O)c1C,2.87

row,Compound,"hERG current change (%, negative = inhibition) at 1uM [%]"
1,O=C(CCC(=O)NNc1nc2ccccc2c2nc(-c3ccccc3)nn12)NCCCN1CCOCC1,6.29
2,CCn1cc(C(=O)NCCN(C)C)c(=O)c2cc(F)c(N3CCN(C)CC3)cc21.Cl,2.03
3,CN1CCc2nc3ccc(F)cc3c(C(N)=O)c2C1.Cl,3.55
4,O=C(CCN1CCOCC1)NNC(=S)NC(=O)c1ccccc1,18.2
5,Cc1ccc(OCCCC(=O)Nc2ccc(S(=O)(=O)Nc3ccccn3)cc2)cc1,6.87
6,O=C(Nc1cc(=O)c2ccccc2o1)N1CCCCC1,11.5
7,COc1cc2c(cc1OC)CN(C(=O)c1ccc(-c3ccccc3)cc1)CC2,9.14
8,CCN1CCN(c2cc(N3CCCC3)c(F)cc2[N+](=O)[O-])CC1,0.416
9,O=C(CP(=O)(c1ccccc1)c1ccccc1)N1CCCCC1,6.28
10,COc1cccc(N2CCN(Cc3nnnn3C3CCCCC3)CC2)c1,16.1
11,CN(CC(=O)Nc1ccc(F)cc1)C(=O)CN1C(=O)NC2(CCCc3ccccc32)C1=O (centres unmarked),8.93
12,COc1ccc(NC(=O)CSCC(=O)N(C)Cc2ccc3c(c2)OCCO3)cc1,8.7
13,CC1CCCCN1CCNC(=O)c1ccc2c(c1)N(Cc1ccccc1)C(=O)c1ccccc1S2(=O)=O (centres unmarked),7.47
14,Cc1cccc(OCCSc2cc(C)nc(N)n2)c1,0.701
15,Cc1ccc([C@@H]2[C@@H]3C(=O)N(c4ccccc4)C(=O)[C@@H]3[C@]3(C)C(=O)N(CC4CC4)CC(=O)N23)o1,4.73
16,O=C(O)CCNS(=O)(=O)c1ccc2c(c1)OCCCO2,14.8
17,CN1C(=S)SC(/[N+]([O-])=C\c2cccs2)C1(C)C (centres unmarked),8.56
18,CCN(CC)c1ccc(/C=C(\C#N)C(=O)NCc2ccco2)cc1,7.5
19,CN(c1ccccc1)c1ccc(/C=C/[N+](=O)[O-])cc1,14.1
20,Cc1cc(C)c(NC(=O)CCCOC(=O)C2=COCCO2)c(C)c1,12.7
21,Cc1ccn2c(NC(=O)c3ccccc3)c(-c3cccs3)nc2c1,13.8
22,Cn1c(SCc2cc(=O)n3cc(Br)ccc3n2)nnc1C1COc2ccccc2O1 (centres unmarked),-37.1

row,Compound,"hERG current change (%, negative = inhibition) at 1uM [%]"
1,COc1cccc(NC(=O)N2CCCC2C(=O)NCC(C)C)c1 (centres unmarked),11
2,CCC1=C(OC(=O)N(CC)CC)N2C(=O)OC(=NCc3ccccc3)[C@]2(C)[C@H]2C1=CC[C@H]1C(=O)NC(=O)[C@H]12,4.75
3,CCn1cc(NC(=O)Nc2ccccc2C(=O)OC)c(C(N)=O)n1,9.52
4,CCCN1CCN(C(c2cc3cc4c(cc3[nH]c2=O)OCO4)c2nnnn2C(C)(C)C)CC1 (centres unmarked),4.99
5,COC(=O)c1cc(NC(=O)CN2CCN(C(C)=O)CC2)cc(C(=O)OC)c1,7.76
6,C=CCN1c2ccccc2[C@]23C[C@@H](C(=O)OC)N(C(C)=O)C2=NC(C(=O)OC)=C(C(=O)OC)[C@H]13,-8.72
7,CCCCn1c(N)c(N(CCOC)C(=O)c2ccc(NC3CC3)c([N+](=O)[O-])c2)c(=O)[nH]c1=O,13.1
8,Cc1ccccc1CS(=O)(=O)CCC(=O)NCCN1CCN(c2cccc(Cl)c2)CC1,-5.7
9,Oc1ccc(O)c(/C(=N/Nc2ccccc2)c2ccccc2)c1,13.2
10,CCc1nnc(NS(=O)(=O)c2ccc(NC(=O)OC)cc2)s1,14.7
11,COc1ccc(-n2c(Cn3nc(C(F)(F)F)cc3C)n[nH]c2=S)cc1,20.9
12,O=S(=O)(c1ccc(OC(F)(F)F)cc1)N1CCCC(N2CCOCC2)C1 (centres unmarked),3.2
13,C=CCSc1n[nH]c(-c2ccc(OC)cc2)n1,10.5
14,Cc1ccnc(SCC(=O)N2CCc3ccccc32)n1,14.4
15,COc1cccc(C(=O)NCCS(=O)(=O)NCc2cccnc2)c1,3.6
16,Cc1ccc(/C=C2/SC(=S)N(C3CCCCC3)C2=O)o1,-5.55
17,CN(C)C(=O)CNC(=O)CN1C(=O)NC2(CCCc3sccc32)C1=O (centres unmarked),1.4
18,COc1ccc(/C=C(\NC(=O)c2ccccc2)C(=O)NNC(=O)CCN2CCOCC2)cc1,-0.0338
19,CC(OC(=O)c1cc[n+]([O-])cc1)C(=O)NCc1ccccc1 (centres unmarked),12
20,CCN(c1ccccc1)S(=O)(=O)c1ccc(NCC2COc3ccccc3O2)nc1 (centres unmarked),6.64

# Source: article PMC4336329 (PLoS ONE, 2015)
